The values below come from the supplement of paper PMC10037445.

Whole data set: some 2,900 compounds, median “NF-kB SEAP reporter activity, fold change vs agonist alone” near 0.99, cut for the highest 2% near 2.6. Some of the results follow.

Experiment [1] deals with RAW-Dual. The experiment can be described thus: NF-kB SEAP reporter activity, fold change vs agonist alone; cytotoxicity flag (confluency mask): not cytotoxic; higher = enhanced NF-kB activity. Put shortly:
(§1)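 Supernatant from RAW-Dual macrophages was read after 20 hours for IRF by QuantiLuc luminescence and for NF-κB by QuantiBlue absorbance at 620 nm. The cells (50,000 cells/well in DMEM, 384-well plates, 37 °C, 5% CO2) had received 50 nL of library stock by pin tool and, 1 h later, a PRR agonist. Reporter activity is expressed relative to agonist-alone wells as fold change, and wells were flagged cytotoxic if IncuCyte confluency was under 70% of agonist controls in both mask sets.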

For experiment [2], the system named is RAW-Dual. Nature of the experiment: NF-kB SEAP reporter activity, fold change vs agonist alone; higher = enhanced NF-kB activity. The conditions noted are these: cytotoxicity flag (confluency mask): not cytotoxic. The gist of the method:
as §1

Setting [3] is: agonist: ODN 1826 (TLR9) 0.5 ug/mL.
Setting [4] is: agonist: Pam2CSK4 (TLR2/6) 0.1 ug/mL.
Where [5] appears, read: agonist: Pam3CSK4 (TLR2/1) 0.1 ug/mL.
Where [6] appears, read: library stock concentration (final ~1000-fold dilution): 10 mM, agonist: Imiquimod (TLR7) […].
The mark [7] stands for this setting: library stock concentration (final ~1000-fold dilution): 10 mM, agonist: MPLA (TLR4) […].

For the molecule `COc1cc2ncnc(Oc3ccc(CC(=O)Nc4cnn(C(C)C)c4)cc3)c2cc1OC` (library stock concentration (final ~1000-fold dilution): 10 mM), the “NF-kB SEAP reporter activity” value came out at 1.02 in experiment [1] (agonist: LPS (TLR4) 0.1 ug/mL), 0.813 in experiment [1] (setting [3]), 0.81 in experiment [1] (setting [4]) and 0.722 in experiment [1] (setting [5]).
As to `COc1cc2ncnc(Oc3ccc(CC(=O)Nc4cnn(C(C)C)c4)cc3)c2cc1OC`, the “NF-kB SEAP reporter activity” value in experiment [2] (setting [6]) is 0.73; in experiment [2] (setting [7]), 0.796.
Regarding `CC(C)(C)/[N+]([O-])=C/c1ccc(S(=O)(=O)O)cc1S(=O)(=O)O` (library stock concentration (final ~1000-fold dilution): 10 mM), the “NF-kB SEAP reporter activity” value in experiment [1] (agonist: LPS (TLR4) 0.1 ug/mL) came to 1.29; in experiment [1] (setting [3]) it was 0.946; in experiment [1] (setting [4]) it was 1.02; in experiment [1] (setting [5]), 1.02.
With `CC(C)(C)/[N+]([O-])=C/c1ccc(S(=O)(=O)O)cc1S(=O)(=O)O`, the results for the “NF-kB SEAP reporter activity” value in experiment [2] (setting [6]) and in experiment [2] (setting [7]) were 0.926 and 0.997, respectively.
In the case of `C=CCCC(=O)O` (library stock concentration (final ~1000-fold dilution): 10 mM), the “NF-kB SEAP reporter activity” value in experiment [1] (agonist: LPS (TLR4) 0.1 ug/mL) was found to be 0.914; in experiment [1] (setting [3]) it was 0.921; in experiment [1] (setting [4]) it was 1.05; in experiment [1] (setting [5]) it was 0.892.
Consider `C=CCCC(=O)O`, for which the entries for the “NF-kB SEAP reporter activity” value in experiment [2] (setting [6]) and in experiment [2] (setting [7]) were 0.98 and 1.01, respectively.
Turning to `COC(=O)NC(C(=O)N1CCCC1c1ncc(-c2ccc3c(c2)OC(c2ccccc2)n2c-3cc3cc(-c4cnc(C5CCCN5C(=O)C(NC(=O)OC)C(C)C)[nH]4)ccc32)[nH]1)C(C)C` (configuration not stated) (library stock concentration (final ~1000-fold dilution): 10 mM), the “NF-kB SEAP reporter activity” value in experiment [1] (agonist: LPS (TLR4) 0.1 ug/mL) is 1.44; in experiment [1] (setting [3]), 0.946; in experiment [1] (setting [4]), 0.849; in experiment [1] (setting [5]), 0.671.
For the molecule `COC(=O)NC(C(=O)N1CCCC1c1ncc(-c2ccc3c(c2)OC(c2ccccc2)n2c-3cc3cc(-c4cnc(C5CCCN5C(=O)C(NC(=O)OC)C(C)C)[nH]4)ccc32)[nH]1)C(C)C` (configuration not stated), the figures for the “NF-kB SEAP reporter activity” value in experiment [2] (setting [6]) and in experiment [2] (setting [7]) were 1.03 and 0.99, respectively.
For the molecule `COc1ncc(-c2ccc3nccc(-c4ccnnc4)c3c2)cc1NS(=O)(=O)c1ccc(F)cc1F` (library stock concentration (final ~1000-fold dilution): 10 mM), the “NF-kB SEAP reporter activity” value in experiment [1] (agonist: LPS (TLR4) 0.1 ug/mL) stood at 6.18; in experiment [1] (setting [3]), 0.959; in experiment [1] (setting [4]), 2.26; in experiment [1] (setting [5]) it was 0.801.
For the molecule `COc1ncc(-c2ccc3nccc(-c4ccnnc4)c3c2)cc1NS(=O)(=O)c1ccc(F)cc1F`, the entries for the “NF-kB SEAP reporter activity” value in experiment [2] (setting [6]) and in experiment [2] (setting [7]) were 0.912 and 0.957, respectively.
With `CN1CCCN=C1/C=C/c1cccc(O)c1.O=C(O)c1cc2ccccc2c(Cc2c(O)c(C(=O)O)cc3ccccc23)c1O` (library stock concentration (final ~1000-fold dilution): 10 mM), the “NF-kB SEAP reporter activity” value is 0.973 in experiment [1] (agonist: LPS (TLR4) 0.1 ug/mL), 0.993 in experiment [1] (setting [3]), 1.01 in experiment [1] (setting [4]) and 0.594 in experiment [1] (setting [5]).
Take `CN1CCCN=C1/C=C/c1cccc(O)c1.O=C(O)c1cc2ccccc2c(Cc2c(O)c(C(=O)O)cc3ccccc23)c1O`: the “NF-kB SEAP reporter activity” value was 0.944 in experiment [2] (setting [6]) and 1.12 in experiment [2] (setting [7]).
Take `CN(C)CCN(Cc1ccccc1)c1ccccn1.Cl` (library stock concentration (final ~1000-fold dilution): 10 mM water): the “NF-kB SEAP reporter activity” value in experiment [1] (agonist: LPS (TLR4) 0.1 ug/mL) came to 0.984; in experiment [1] (setting [3]), 0.872; in experiment [1] (setting [4]), 1.09; in experiment [1] (setting [5]), 1.1.
Take `CN(C)CCN(Cc1ccccc1)c1ccccn1.Cl`: the “NF-kB SEAP reporter activity” value in experiment [2] (library stock concentration (final ~1000-fold dilution): 10 mM water, agonist: Imiquimod (TLR7) […]) was 0.979; in experiment [2] (library stock concentration (final ~1000-fold dilution): 10 mM water, agonist: MPLA (TLR4) […]), 1.09.
As to `CC1COCCN1c1cc(C2(S(C)(=O)=O)CC2)nc(-c2cccc3[nH]ccc23)n1` (configuration not stated) (library stock concentration (final ~1000-fold dilution): 10 mM), the “NF-kB SEAP reporter activity” value in experiment [1] (agonist: LPS (TLR4) 0.1 ug/mL) was found to be 1.39; in experiment [1] (setting [3]), 0.532; in experiment [1] (setting [4]), 0.749; in experiment [1] (setting [5]), 0.964.
In the case of `CC1COCCN1c1cc(C2(S(C)(=O)=O)CC2)nc(-c2cccc3[nH]ccc23)n1` (configuration not stated), the “NF-kB SEAP reporter activity” value in experiment [2] (setting [6]) came to 1.81; in experiment [2] (setting [7]), 1.65.
Consider `Brc1c(Br)c(Br)c2[nH]nnc2c1Br` (library stock concentration (final ~1000-fold dilution): 10 mM), for which the “NF-kB SEAP reporter activity” value in experiment [1] (agonist: LPS (TLR4) 0.1 ug/mL) is 1.19; in experiment [1] (setting [3]) it was 0.821; in experiment [1] (setting [4]) it was 1.1; in experiment [1] (setting [5]), 1.02.
Take `Brc1c(Br)c(Br)c2[nH]nnc2c1Br`: the “NF-kB SEAP reporter activity” value in experiment [2] (setting [7]) came to 1.11.
Take `O=C1[C@H](CC[C@H](O)c2ccc(F)cc2)[C@@H](c2ccc(O)cc2)N1c1ccc(F)cc1` (library stock concentration (final ~1000-fold dilution): 10 mM): the “NF-kB SEAP reporter activity” value in experiment [1] (agonist: LPS (TLR4) 0.1 ug/mL) turned out to be 0.814; in experiment [1] (setting [3]), 0.624; in experiment [1] (setting [4]) it was 0.366; in experiment [1] (setting [5]) it was 0.463.
As for `O=C1[C@H](CC[C@H](O)c2ccc(F)cc2)[C@@H](c2ccc(O)cc2)N1c1ccc(F)cc1`, the “NF-kB SEAP reporter activity” value turned out to be 0.261 in experiment [2] (setting [6]) and 0.893 in experiment [2] (setting [7]).
With `Cc1cc(-c2ncc(CC(=O)Nc3ccc(-c4cnccn4)cn3)cc2C)ccn1` (library stock concentration (final ~1000-fold dilution): 10 mM), the “NF-kB SEAP reporter activity” value was 1.26 in experiment [1] (agonist: LPS (TLR4) 0.1 ug/mL), 1 in experiment [1] (setting [3]), 1.02 in experiment [1] (setting [4]) and 1.14 in experiment [1] (setting [5]).
Regarding `Cc1cc(-c2ncc(CC(=O)Nc3ccc(-c4cnccn4)cn3)cc2C)ccn1`, the “NF-kB SEAP reporter activity” value in experiment [2] (setting [6]) is 1.01; in experiment [2] (setting [7]), 1.18.
For `CN1CCC(NC(=O)c2cc(-c3c(O)cc(O)cc3Oc3ccc([N+](=O)[O-])cc3)on2)CC1`, in that order: 0.152 and 0.341.
For the molecule `CN1CCC(NC(=O)c2cc(-c3c(O)cc(O)cc3Oc3ccc([N+](=O)[O-])cc3)on2)CC1` (library stock concentration (final ~1000-fold dilution): 10 mM), the “NF-kB SEAP reporter activity” value was determined as 0.235 in experiment [1] (agonist: LPS (TLR4) 0.1 ug/mL), 0.192 in experiment [1] (setting [3]), 0.0743 in experiment [1] (setting [4]) and 0.133 in experiment [1] (setting [5]).
In the case of `CNCCc1ccccn1.Cl.Cl` (library stock concentration (final ~1000-fold dilution): 10 mM), the “NF-kB SEAP reporter activity” value in experiment [1] (agonist: LPS (TLR4) 0.1 ug/mL) worked out at 1.24; in experiment [1] (setting [3]), 1.07; in experiment [1] (setting [4]), 1.07; in experiment [1] (setting [5]), 1.03.
Consider `CNCCc1ccccn1.Cl.Cl`, for which the “NF-kB SEAP reporter activity” value in experiment [2] (setting [6]) worked out at 1.1; in experiment [2] (setting [7]) it was 1.02.
